Experimental findings from publication PMC4336329 (PLoS ONE, 2015) are described below.

In all, about 310,000 compounds went through this assay and about 14,000 (4.5%) showed an effect of 50% or more. The effect is printed as a negative number. This is one part of the list.
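Note: peak tail current of the secondary pulse compared with the same well before compound.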

For the test, the target named is human ether-à-go-go-related gene (hERG) potassium channel (human, UniProt Q12809). As to the kind of experiment: primary screen, population patch clamp on CHO cells stably expressing hERG.
Chain of human ether-à-go-go-related gene (hERG) potassium channel (Q12809 whole entry, looked up): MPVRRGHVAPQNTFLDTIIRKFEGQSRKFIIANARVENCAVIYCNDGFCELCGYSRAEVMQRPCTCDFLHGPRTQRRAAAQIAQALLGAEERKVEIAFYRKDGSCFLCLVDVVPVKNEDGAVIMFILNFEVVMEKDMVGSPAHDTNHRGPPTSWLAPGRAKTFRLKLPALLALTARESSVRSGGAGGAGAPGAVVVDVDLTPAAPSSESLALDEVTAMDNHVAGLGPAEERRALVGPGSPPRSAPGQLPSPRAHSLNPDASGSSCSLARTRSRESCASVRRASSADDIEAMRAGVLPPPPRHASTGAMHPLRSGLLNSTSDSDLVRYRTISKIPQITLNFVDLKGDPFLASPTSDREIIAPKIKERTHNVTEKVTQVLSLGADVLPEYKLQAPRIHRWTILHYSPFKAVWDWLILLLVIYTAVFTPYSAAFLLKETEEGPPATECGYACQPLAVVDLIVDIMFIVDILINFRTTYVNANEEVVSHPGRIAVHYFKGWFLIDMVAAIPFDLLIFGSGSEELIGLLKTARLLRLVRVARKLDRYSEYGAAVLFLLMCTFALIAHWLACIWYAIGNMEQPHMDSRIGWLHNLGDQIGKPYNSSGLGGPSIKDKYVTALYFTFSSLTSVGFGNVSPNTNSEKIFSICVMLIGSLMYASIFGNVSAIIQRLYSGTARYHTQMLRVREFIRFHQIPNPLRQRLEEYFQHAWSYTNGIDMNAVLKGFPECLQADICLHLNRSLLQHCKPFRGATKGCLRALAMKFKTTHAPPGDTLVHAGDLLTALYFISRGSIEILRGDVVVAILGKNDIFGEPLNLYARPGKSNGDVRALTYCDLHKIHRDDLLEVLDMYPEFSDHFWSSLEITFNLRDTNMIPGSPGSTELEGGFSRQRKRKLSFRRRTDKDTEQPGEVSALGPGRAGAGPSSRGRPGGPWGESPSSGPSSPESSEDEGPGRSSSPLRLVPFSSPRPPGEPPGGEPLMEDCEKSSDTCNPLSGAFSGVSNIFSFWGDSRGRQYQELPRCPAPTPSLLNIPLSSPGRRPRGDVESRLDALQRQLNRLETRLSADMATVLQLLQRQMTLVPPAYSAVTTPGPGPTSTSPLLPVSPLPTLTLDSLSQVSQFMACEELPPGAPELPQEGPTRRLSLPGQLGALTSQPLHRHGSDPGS
Regarding `CCOc1ccc(N2CC(C(=O)OCC(=O)NCc3ccccc3)CC2=O)cc1` (stereo not drawn), the “hERG current change (%, negative = inhibition) at 10uM” value is on record as -38.5%.

`Cc1cc2cc(CN(Cc3cccs3)S(=O)(=O)c3ccc4c(c3)OCCO4)c(=O)[nH]c2cc1C`: the “hERG current change (%, negative = inhibition) at 10uM” value worked out at 8.96%.

As to `COc1ccc(C(=O)NC(=S)Nc2ccccc2N2CCCCC2)cc1[N+](=O)[O-]`, the “hERG current change (%, negative = inhibition) at 10uM” value is recorded as 1.21%.

With `N#Cc1c(N)nc(SCC(=O)C23CC4CC(CC(C4)C2)C3)c(C#N)c1-c1ccc(Cl)cc1`, the “hERG current change (%, negative = inhibition) at 10uM” value is given as -0.972%.

Turning to `O=C(Cc1ccc(-c2ccccc2)cc1)NCc1cccnc1`, the “hERG current change (%, negative = inhibition) at 10uM” value is -25.9%.

Consider `O=Cc1cn(-c2ccccc2)nc1-c1cc2ccccc2oc1=O`, for which the “hERG current change (%, negative = inhibition) at 10uM” value came to 2.78%.

On to `Nc1cc(-c2cccc(Br)c2)nn1Cc1ccccc1`, for which the “hERG current change (%, negative = inhibition) at 10uM” value was -17.2%.

Turning to `CC(=O)Nc1ccc(OCC(O)CN2CCN(c3cc(Cl)ccc3C)CC2)cc1` (stereo not drawn), the “hERG current change (%, negative = inhibition) at 10uM” value was -30.8%.

In the case of `COC(=O)c1ccccc1NC(=O)c1nc2nc(C)cc(C)n2n1`, the “hERG current change (%, negative = inhibition) at 10uM” value was -1.89%.

On to `O=C(NCCN1CCOCC1)C1CCC(=O)N1C1CCCCC1` (stereo not drawn), for which the “hERG current change (%, negative = inhibition) at 10uM” value worked out at 7.11%.

With `Fc1ccc(-n2ncc3c(SCc4cccnc4)ncnc32)cc1`, the “hERG current change (%, negative = inhibition) at 10uM” value was -5.55%.

Take `CCn1ncc(-c2cc(C(=O)O)no2)c1C`: the “hERG current change (%, negative = inhibition) at 10uM” value stood at 18.9%.

Turning to `Cc1ccc(Cl)cc1NC(=O)CNCC(c1ccccc1)N(C)C.O=C(O)C(=O)O` (stereo not drawn), the “hERG current change (%, negative = inhibition) at 10uM” value was -30.3%.

As to `CCC1ON(c2ccccc2)C2c3nc4ccccc4n3CC12` (stereo not drawn), the “hERG current change (%, negative = inhibition) at 10uM” value stood at 11.1%.

For the compound `Cc1nn(CCC#N)c2nc(-c3ccccc3)cc(C(F)(F)F)c12`, the “hERG current change (%, negative = inhibition) at 10uM” value is 18.5%.

Turning to `C/C(=N\NC(=S)Nc1ccc(F)cc1)c1ccc2c(c1)OCCO2`, the “hERG current change (%, negative = inhibition) at 10uM” value is recorded as -34.7%.

`CCc1cc(=O)[nH]c(SCC(=O)Nc2ccc3c(c2)OCCO3)n1`: the “hERG current change (%, negative = inhibition) at 10uM” value is 7.62%.

For the compound `CCCCN(C)CCC(=O)Nc1ccc(F)c(F)c1.Cl`, the “hERG current change (%, negative = inhibition) at 10uM” value is listed as -6.43%.

Turning to `CN(Cc1ccno1)Cc1cn(C)nc1-c1ccc(Oc2ccccc2)cc1`, the “hERG current change (%, negative = inhibition) at 10uM” value is given as -13.4%.

`COc1ccc(C)cc1NC(=O)CN1C(=O)c2cccc3cccc1c23`: the “hERG current change (%, negative = inhibition) at 10uM” value was determined as 18.6%.

For the compound `O=C(CSc1ccc([N+](=O)[O-])cc1)Nc1cccc(S(=O)(=O)Nc2ccccc2F)c1`, the “hERG current change (%, negative = inhibition) at 10uM” value is -74.4%.

With `CC(=O)c1c(C)[nH]c(C(=O)N2CCC3(CC2)OCCO3)c1C`, the “hERG current change (%, negative = inhibition) at 10uM” value was 17.3%.

For `O=C(CSc1ccccn1)NC1CCCC1`, the “hERG current change (%, negative = inhibition) at 10uM” value was found to be 22%.

Consider `COc1ccc(Br)cc1CNc1ccc2[nH]c(=O)[nH]c2c1`, for which the “hERG current change (%, negative = inhibition) at 10uM” value is reported as 15.3%.

As for `CC/C(CC(C)(C)c1ccccc1)=N\O`, the “hERG current change (%, negative = inhibition) at 10uM” value was -0.0804%.

With `CN(C)/C=N/c1ncc(C(=O)c2ccc(-c3ccccc3)cc2)s1`, the “hERG current change (%, negative = inhibition) at 10uM” value is given as -1.79%.

Turning to `Cc1scc(C(=O)NNC(=S)NC(C)c2ccccc2)c1C` (stereo not drawn), the “hERG current change (%, negative = inhibition) at 10uM” value is 14.8%.

On to `O=c1nc(/C=C/c2ccccc2C(F)(F)F)cc(C(F)(F)F)[nH]1`, for which the “hERG current change (%, negative = inhibition) at 10uM” value is 20.4%.

Take `Cc1c2cnn(-c3ccccc3)c(=O)c2c(C)n1CCCC(=O)N1CCN(C2CCCCC2)CC1`: the “hERG current change (%, negative = inhibition) at 10uM” value is reported as -36.7%.

For `Cc1c(N=Cc2c(O)n(Cc3ccccc3)c(=O)[nH]c2=O)c(=O)n(-c2ccccc2)n1C`, the “hERG current change (%, negative = inhibition) at 10uM” value is on record as -5.81%.

Consider `Cn1c(=S)[nH]c2sc3c(c2c1=O)CCC(C(C)(C)C)C3` (stereo not drawn), for which the “hERG current change (%, negative = inhibition) at 10uM” value came out at 23.6%.

In the case of `O=C1Cc2cc(S(=O)(=O)N3CCCCC3)ccc2N1`, the “hERG current change (%, negative = inhibition) at 10uM” value is given as 7.81%.

As for `CCCCSCCCNC(=O)Nc1cccc(OC)c1`, the “hERG current change (%, negative = inhibition) at 10uM” value is -3.84%.

For the compound `Cc1ccc(N(CC(=O)N2CCc3ccccc3C2)S(C)(=O)=O)cc1`, the “hERG current change (%, negative = inhibition) at 10uM” value is -1.59%.

For `Cc1ccc(C(=O)OC(C)C(=O)Nc2ccc(Cl)cn2)s1` (stereo not drawn), the “hERG current change (%, negative = inhibition) at 10uM” value is reported as -19.9%.

`COc1ccc(NC(=O)c2c(N)no[n+]2[O-])c(OC)c1`: the “hERG current change (%, negative = inhibition) at 10uM” value was determined as 20.9%.

As for `CC1CCCCC1NC(=O)COC(=O)c1ccc(S(=O)(=O)NCc2ccco2)cc1` (stereo not drawn), the “hERG current change (%, negative = inhibition) at 10uM” value is -9.62%.

Take `CC(=O)c1ccccc1OC(=O)c1ccc(-c2ccccc2)cc1`: the “hERG current change (%, negative = inhibition) at 10uM” value is 10.7%.

In the case of `COCCNC(=O)COC(=O)/C=C/c1cnc2ccccc2n1`, the “hERG current change (%, negative = inhibition) at 10uM” value is 6.11%.

In the case of `CNC(=S)Nc1ccc(C)c(NC(=S)NC)c1`, the “hERG current change (%, negative = inhibition) at 10uM” value is -8.07%.

Turning to `O=c1cc(CSc2nnc(Nc3ccccc3)s2)nc2sccn12`, the “hERG current change (%, negative = inhibition) at 10uM” value is on record as -27.6%.

With `CC(=O)NCCc1nc2cc(NC(=O)c3ccccc3Cl)ccc2n1C`, the “hERG current change (%, negative = inhibition) at 10uM” value was found to be 6.94%.

Consider `Cn1cc(S(=O)(=O)CC(=O)N2CCc3ccccc32)c2ccccc21`, for which the “hERG current change (%, negative = inhibition) at 10uM” value is recorded as -7.93%.

Take `Cc1csc(NC(=O)CSc2nnc(CCNC(=O)c3ccc(Cl)c(Cl)c3)n2C)n1`: the “hERG current change (%, negative = inhibition) at 10uM” value was -3.32%.

For `Cc1cc(NC(=O)C2CCCCC2)ccc1NC(=O)c1ccccc1Cl`, the “hERG current change (%, negative = inhibition) at 10uM” value is on record as 4.67%.

As for `COc1ccc2[nH]cc(CCn3ccc(O)c(C/C=C/c4ccccc4)c3=O)c2c1`, the “hERG current change (%, negative = inhibition) at 10uM” value is on record as 8.05%.

Take `COc1ccc(C(=O)CC(=O)C(=O)Nc2ccc(Cl)cc2)cc1`: the “hERG current change (%, negative = inhibition) at 10uM” value was determined as 7.74%.

Take `CC(C)=CCCC1=CCC(/C(C)=N/NC(N)=O)CC1` (stereo not drawn): the “hERG current change (%, negative = inhibition) at 10uM” value is recorded as -53.7%.

For the compound `COc1cc(C(=O)Nc2ccc3c(c2)OCO3)ccc1OCc1c(C)noc1C`, the “hERG current change (%, negative = inhibition) at 10uM” value worked out at 41.9%.

Regarding `O=C(O)C1CC=CCC1C(=O)N1CCN(c2nc(-c3ccccc3)c3ccccc3n2)CC1` (stereo not drawn), the “hERG current change (%, negative = inhibition) at 10uM” value was -16.8%.

Regarding `Cc1cccc(N(Cc2ccccc2)C(=O)c2ccccc2F)c1`, the “hERG current change (%, negative = inhibition) at 10uM” value is listed as -4.57%.

In the case of `Cc1ccc(CN(Cc2ccco2)C(=O)c2ccco2)cc1`, the “hERG current change (%, negative = inhibition) at 10uM” value is -35.9%.

On to `Cc1ccc(NC(=O)c2cccc(NC3=NC4CS(=O)(=O)CC4S3)c2)cc1` (stereo not drawn), for which the “hERG current change (%, negative = inhibition) at 10uM” value was found to be 12.5%.

On to `CCOc1ccc(CSC(=N)N)cc1Cl.Cl`, for which the “hERG current change (%, negative = inhibition) at 10uM” value is reported as -15.2%.

With `S=C(NCc1ccco1)Nc1cc(-c2ccccc2)[nH]n1`, the “hERG current change (%, negative = inhibition) at 10uM” value was -20.9%.

Turning to `COc1ccc(NS(=O)(=O)c2cc(C(=O)OC(C)C(=O)N3CCOCC3)ccc2Cl)cc1` (stereo not drawn), the “hERG current change (%, negative = inhibition) at 10uM” value was -19.6%.

For the compound `O=C(N/N=C/C(Br)=C/c1ccccc1)NC1CCCCC1`, the “hERG current change (%, negative = inhibition) at 10uM” value is 10.7%.
